# Experimental data: PubChem BioAssay AID1948 (National Center for Advancing Translational Sciences (NCATS), 2009)
# Screen size: about 110,000 compounds; about 20 (0.02%) were called active. This list was built around the results that the source calls inconclusive (neither active nor inactive); the mix of calls is not that of the screen. Calls follow the shape of the dose curve; as a rule, active = well fitted activation curve with a large enough effect; inconclusive = small, poorly fitted or top-dose-only effect; inactive = no such curve, though single readings can be large or run the other way. No potency is given beside an inconclusive call; the fits are too rough.
# Experiment: qHTS Assay for Compounds that Induce Erasure of Genomic Imprints;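 as to activity change, positive = activation: 0% = negative control wells on the plate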
# Conditions: mouse ES Peg3-LacZ reporter, beta-gal luminescence, 40 h; activity change, positive = activation: at 10.9 µM (top of the series) unless noted
# Procedure, shortened: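 Readout: BetaGlo luminescence (5 min, room temp) for LacZ from the normally silent maternal Peg3 allele in female Peg3LacZ-Neo ES cells. Cells 300/well, 40 h, 37C, 5% CO2. Data normalized per plate to negative controls.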
# Potency is read from the fitted curve at half-maximal effect; tags tell the direction and shape of the fitted curve.
Compound,"activity change, positive = activation",Potency
COc1ccccc1-c1nc(N(C)Cc2ccco2)c2ccccc2n1,inactive: -17.9% [at 60.7 µM],–
COc1ccc(C(=O)NCc2ccc3c(c2)CCN3C(=O)c2ccc(Cl)cc2)c(OC)c1,inconclusive: 30.7% [activator],–
CCc1ccc(-c2[nH]nc3nc(-c4cc(OC)ccc4OC)cc(C(=O)O)c23)cc1,inconclusive: 35.2% [activator],–
CN(C)c1ncc2nc(-c3ccccc3)c(=O)n(C[C@H]3CCCO3)c2n1,–,"inconclusive [activator, single point]"
Cc1ccc(Cn2c(CO)cnc2SCC(=O)Nc2cccc(F)c2)cc1,inactive: -19.7%,–
CCCCN(C)C(=O)C1CCC(=O)N(c2cc(OC)c(OC)c(OC)c2)C1c1ccc(OC)cc1 (centres undefined),–,"inconclusive [activator, single point]"
Cn1c(N)c(C(=O)COC(=O)CCC(=O)c2cccs2)c(=O)n(C)c1=O,–,"inconclusive [activator, single point]"
O=C(Nc1cccc2c1CCCC2)C1CCN(C(=O)NC2CCCCC2)CC1,–,"inconclusive [activator, single point]"
CCN(CC)CCNC(=O)c1ccc2c(=O)n3nc(Nc4cccc(Cl)c4C)sc3nc2c1,inactive: -4%,–
O=C(Nc1ccc2nn(-c3ccccc3)nc2c1)c1ccc2c(c1)OCCO2,inactive: -20.5% [at 60.7 µM],–
CCOC(=O)C1CCCN(S(=O)(=O)c2cc3c(cc2C)NC(=O)CO3)C1 (centres undefined),inconclusive: 63.1% [activator],–
O=C(CSc1nc2c([nH]c3ccccc32)c(=O)n1-c1ccc(F)cc1)NCc1ccco1,inconclusive: 31.3% [activator],–
CCOc1ccc(C(=O)c2cn(Cc3ccccc3)c3c(F)cc(F)cc3c2=O)cc1,inconclusive: 32.6% [activator],–
c1cncc(-c2nccc(NCc3cccs3)n2)c1,–,"inconclusive [activator, single point]"
O=C(c1ccc2c(c1)N(Cc1ccc(F)cc1)C(=O)c1ccccc1S2(=O)=O)N1CCN(c2ccccn2)CC1,inconclusive: 31.1% [activator],–
Cc1ccc(CCNC(=O)c2ccc(CS(=O)(=O)Cc3cccc(C)c3)o2)cc1,inconclusive: 51% [activator],–
CN(C)c1nc(N2CCOCC2)nc(N(c2ccccc2)c2ccccc2)n1,–,"inconclusive [activator, partial curve]"
N#CCCn1c(=O)c(CCc2ccccc2)nc2cnc(Nc3ccccc3)nc21,–,"inconclusive [activator, single point]"
COc1cccc(-c2cc(C(F)(F)F)n3nc(C)c(-c4ccccc4)c3n2)c1,inactive: 7.34%,–
CCNc1ncc2nc(CCc3ccccc3)c(=O)n(C3CC3)c2n1,inactive: 2.03% [at 60.7 µM],–
CCc1ccc2oc(-c3ccc(N)cc3)nc2c1,–,"inconclusive [activator, single point]"
COCCNC(=O)c1ccc(-c2nc(CN3CCc4ccccc43)c(C)o2)cc1,inactive: -3.1%,–
CCSc1nc2ccccc2n1CCC(=O)O,–,"inconclusive [activator, single point]"
O=c1c(N2CCCCC2)csc2ccc(F)cc12,inactive: -3.65%,–
Cn1cc(C(=O)NCCc2ccccc2)c(=O)c2cc(S(=O)(=O)N3CCCCCC3)ccc21,inactive: -7.87%,–

Compound,"activity change, positive = activation",Potency
Cn1c(SCc2ccccc2Cl)nc2c([nH]c3ccccc32)c1=O,inactive: -3.33%,–
O=C(OCC(=O)N1CCN(C(=O)c2ccco2)CC1)c1cc(-c2ccc(F)cc2)nc2ccccc12,inactive: -29.2% [at 60.7 µM],–
FC(F)C(F)(F)C1=CC(c2cccs2)=NCCN1,inactive: -23.2% [at 60.7 µM],–
Cc1ccccc1C(=O)OCc1cc(=O)n2c(C)csc2n1,inconclusive: 44.6% [activator],–
CCSc1nc2ccccc2c(OCc2cc(C(=O)OC)ccc2OC)c1C(=O)OC,inactive: -10.2%,–
Cn1c(CCNC(=O)c2ccco2)nc2cc(NC(=O)c3ccco3)ccc21,inactive: -13.8% [at 60.7 µM],–
CC(C)N(Cc1nc(-c2ccc(Cl)cc2)no1)C(=O)c1ccco1,inconclusive: 41% [activator],–
O=C(c1cccs1)N1CCN(Cc2ccncc2)CC1,–,"inconclusive [activator, single point]"
O=C(Nc1ccc2c(c1)Cc1ccccc1-2)c1ccco1,inactive: -35.2% [at 60.7 µM],–
COc1ccc(Cn2c(=O)c3ccccc3n3c(-c4cccc(OC)c4OC)nnc23)cc1,inactive: -17.7%,–
CN(C)CCN(Cc1ccco1)C(=O)c1oc2ccccc2c1NC(=O)c1cccc(F)c1,inconclusive: 38.4% [activator],–
N[C@@](CCc1ccccc1)(C(=O)O)c1ccccc1,inactive: 2.48%,–
C[C@@]12C[C@@H](O)[C@H]3[C@@H](CCC4=CC(=O)CC[C@]43C)[C@H]1CC[C@H]2C(=O)CO,–,"inconclusive [activator, single point]"
CCNC(=O)c1c(NC(=O)c2nc(S(=O)(=O)CC)ncc2Cl)sc2c1CCCC2,inactive: -39.1%,–
CC1CCCCN1C(=O)CCS(=O)(=O)c1cc2c(cc1Cl)NC(=O)CO2 (centres undefined),inconclusive: 31.4% [activator],–
CCOc1ccccc1NC(=O)c1ccc(F)c(S(=O)(=O)N2CCN(c3ccc(F)cc3)CC2)c1,inconclusive: 42.6% [activator],–
COc1ccc(Cn2ccnc2SCC(=O)Nc2nnc(C)s2)cc1,inconclusive: 38.2% [activator],–
COc1ccc(-n2cnc3c(sc4nccc(N(C)C)c43)c2=O)cc1,–,"inconclusive [activator, single point]"
CCCCCC1C(=O)CCC1CC(=O)OC (centres undefined),–,"inconclusive [activator, single point]"
Nc1c(O)cccc1C(=O)C[C@@H](N)C(=O)O,inactive: 11.4% [at 16.8 µM],–
CCOc1ccc(CCNC(=O)C2CCN(Cc3nc(-c4ccc(OC)c(OC)c4)oc3C)CC2)cc1OCC,inconclusive: 55.5% [activator],–
COc1cc(-c2nc(-c3ccc4c(c3)[nH]c(=O)n4C)no2)cc(OC)c1OC,inconclusive: 78.1% [activator],–
N#Cc1ccccc1NC(=O)C(=O)NCCc1csc(-c2ccc(C(F)(F)F)cc2)n1,inconclusive: 37% [activator],–
CCOc1ccccc1NC(=O)c1ccccc1N(C)S(C)(=O)=O,–,"inconclusive [activator, single point]"
COc1ccc(Cn2c(=O)[nH]c3cc(C(=O)NCCC(C)C)ccc3c2=O)cc1,inconclusive: 32.4% [activator],–

Compound,"activity change, positive = activation",Potency
O=C(Nc1ccc2c(c1)nc1n2CCOC1)c1ccccc1,inactive: -51.8% [at 60.7 µM],–
C#CCOc1ccc(C2C(C(=O)OC)=C(C)NC3=C2C(=O)c2ccccc23)cc1OCC (centres undefined),inactive: -5.4%,–
CCN(CC)c1ccc2cc(-c3nc4ccccc4n3C)c(=O)oc2c1,inactive: -23.1% [at 60.7 µM],–
O=C1CC(c2ccccc2)Cc2[nH]c(=O)c(-c3nc(-c4ccc(F)cc4)cs3)cc21 (centres undefined),inactive: -21.1%,–
COc1ccc(N2CCN(C(CNC(=O)c3ccc(C)cc3)c3ccc4c(c3)OCO4)CC2)cc1 (centres undefined),inconclusive: 51.1% [activator],–
COC(=O)c1cccnc1-n1c(=O)c2cccnc2n(Cc2ccc(Cl)cc2)c1=O,–,"inconclusive [activator, partial curve]"
CCOc1ccc(OCC)c(NC(=O)CN(c2ccc(C)cc2)S(=O)(=O)c2c(C)n[nH]c2C)c1,inconclusive: 84.7% [activator],–
CC1(C)CC(=O)c2cc(C(=O)Nc3ccc(Br)cc3)c(=O)n(-c3ccc(Cl)cc3)c2C1,inconclusive: 34.6% [activator],–
COC(=O)c1ccc(CSc2nc3c([nH]c4ccccc43)c(=O)n2-c2cccc(OC)c2)o1,inactive: 6.61%,–
Oc1c(C(c2ccc(Cl)cc2Cl)N2CCOCC2)sc2nc(-c3ccco3)nn12 (centres undefined),inconclusive: 30.4% [activator],–
COc1ccc(CNS(=O)(=O)c2cc(C(=O)Nc3cc(Cl)cc(Cl)c3)ccc2F)cc1,inactive: -6.44%,–
Cn1cccc1Cc1nnc(SCC(=O)Nc2ccc3c(c2)OCO3)n1-c1ccc(F)cc1,–,"inconclusive [activator, single point]"
COc1cc(C2C(C(=O)OC(C)C)=C(C)Nc3[nH]c(=O)[nH]c(=O)c32)ccc1O (centres undefined),–,"inconclusive [activator, partial curve]"
COCCn1c(=O)c(-c2ccc(F)cc2)nc2cnc(Nc3cccc(OC)c3)nc21,–,"inconclusive [activator, single point]"
CN1CCN(C(CNC(=O)c2cccc(F)c2)c2ccc3c(c2)OCO3)CC1 (centres undefined),inconclusive: 34.6% [activator],–
COc1cccc(NC(=O)CSc2nc3c(oc4ccccc43)c(=O)n2Cc2ccco2)c1,inactive: -11.6%,–
COc1ccc(C2=CC(c3ccc(F)cc3)n3ncc(C(=O)Nc4ccc(C)cc4)c3N2)cc1 (centres undefined),inconclusive: 31.8% [activator],–
COc1cccc2c1OC1(C)CC2/C(=C(\C)O)C(=O)N1 (centres undefined),–,"inconclusive [activator, single point]"
CCOC(=O)c1c(C)n(-c2ccccc2)c2ccc(OC(=O)c3ccccc3)cc12,inactive: -17%,–
CC(=O)Nc1ccc(S(=O)(=O)N=S(C)C)cc1,–,"inconclusive [activator, single point]"
CN(C)c1ccc(-c2nccc(Nc3ccc(F)cc3)n2)cc1,–,"inconclusive [activator, single point]"
CCc1nn(CC(=O)NC(C)CC)c(=O)c2cc3c(OC)cccc3n12 (centres undefined),inconclusive: 54.7% [activator],–
Cc1ccc2sc(N(Cc3cccnc3)C(=O)CCOc3ccccc3)nc2c1C,inconclusive: 45% [activator],–
Cn1c(=O)c(-c2cccc(F)c2)nc2cncnc21,–,"inconclusive [activator, single point]"
